The whole screen tested about 94,000 compounds, of which about 4,000 (4.3%) were called active. Inconclusive results, whose numbers are uncertain, are shown with a selection of clear calls. Calls come from the whole dose curve; as a rule, active = well fitted inhibition curve with a large enough effect; inconclusive = small, poorly fitted or top-dose-only effect; inactive = no such curve, though single readings can be large or run the other way. Potencies beside an inconclusive call are fits to weak or partial responses and may not hold up.
Test: Cytotoxic Profiling in NIH 3T3 Cell Line of Diverse Libraries Using Quantitative High-Throughput Screening; note: nearly all actives have a fitted effect of over 55% in size
Conditions: NIH 3T3 viability, CellTiter-Glo ATP luminescence, 48-72 h; series mostly up to 96.7 µM
Text: Cell-based phenotypic screening is a commonly used approach to discover biological pathways, novel drug targets, chemical probes and high-quality hit-to-lead molecules. Many hits identified from high-throughput screening campaign are ruled out through a series of follow-up potency, selectivity/specificity, and cytotoxicity assays. Prioritization of molecules with little or no cytotoxicity for a more in-depth downstream evaluation influence the future direction of projects, so cytotoxicity profiling of the screening libraries at early stage is essential for increasing the likelihood of candidate success. In this study, we analyzed results from a cell-based cytotoxicity screening campaign, comprising nearly 10,000 compounds in NCATS annotated libraries, and over 100,000 compounds in a diversity library, evaluated in four normal cell lines (HEK 293, NIH 3T3, CRL-7250 and HaCat) and a cancer cell line (KB 3-1, a HeLa subline) with overall screening outcomes, hit rates, pan-activity and selectivity. For the annotated library, we also examined the primary targets and mechanistic pathways regularly associated with cell death. To our knowledge, this is the first study to use high-throughput screening to profile large libraries for cytotoxicity assessment in both normal and cancer cell lines. In summary, the results generated here constitutes a valuable resource for the scientific community and provides insight on identifying cytotoxic compounds with particular mechanisms of action, and prioritizing compounds with suitable cytotoxicity profile for further evaluation.
NIH 3T3 cells were seeded into white 1536-well plates using a Multidrop Combi peristaltic dispenser (ThermoFisher, Waltham, MA) at a density of 400 cells/well in 5 uL of medium respectively. A pintool (Kalypsys) was used to transfer 23 nL of compound solution to the 1536-well assay plates. After 48 or 72 hr incubation at 37 degree Celsius, 5% CO2 and 95% humidity, 2.5 uL of CellTiter-Glo (Promega) was dispensed into each well using a dispenser (Aspect Automation, St. Paul, MN) with solenoid valves (Lee Valves, Westbrook CT). Plates were left at room temperature for 10 min before imaging the ATP-coupled luminescence using a ViewLux microplate imager (PerkinElmer, Waltham, MA).
For `Cn1ccc2c(C(=O)NCCc3cnc[nH]3)nc(-c3cccnc3)cc21`, the Potency was active: 44.7 µM. For `O=C(NCc1ccc(Cl)cc1)C1CCc2nnc(C3CCN([S+](=O)([O-])c4ccccc4Cl)CC3)n21` (stereo not given), the Potency was inconclusive: 70.8 µM [inhibitor, single point]. For `Cn1nc(-c2ccncc2)cc1NC(=O)c1cccc(Cl)c1`, the Potency was inconclusive: 44.7 µM [inhibitor, partial curve, poor fit]. With `Cc1cn2nc(C(=O)NCc3ccc(F)cc3F)cc2c(N(C)Cc2ccccc2)n1` the Potency was active: 35.5 µM. In the case of `COc1ccc(CN2C[C@@H](F)[C@@H](OCc3nc4ccc(C)cc4[nH]3)C2)cc1`, the Potency is reported as inconclusive: 63.1 µM [inhibitor, partial curve, poor fit]. In the case of `Cc1ccc(CN2CCC3(C2)NC(=O)c2ccccc2CO3)cc1` (stereo not given), the Potency is reported as inconclusive: 56.2 µM [inhibitor, partial curve, poor fit]. In the case of `COC(=O)N1CCN(C(=O)c2nc3cccnc3n(Cc3ccccc3)c2=O)CC1`, the Potency is reported as “inactive”. With `COCCN1CCCCCC(O)c2cc(C(=O)NCCN3CCCC3)ccc21` (stereo not given) the Potency was inconclusive: 50.1 µM [inhibitor, partial curve, poor fit]. With `N#Cc1ccc(CN2CCC3(CC2)COCCN3C(=O)c2ccccc2)cc1` the Potency was inconclusive: 35.5 µM [inhibitor, full curve]. With `CC1(C(=O)NCc2ccc(F)cc2)COCc2cnc(Nc3ccccc3)nc21` (stereo not given) the Potency was inconclusive: 79.4 µM [inhibitor, partial curve]. In the case of `Cc1nn(-c2ccccc2)c2c1C(C)N(C1CCCN(C(=O)C(C)(C)C)C1)C2=O` (stereo not given), the Potency is reported as “inactive”. With `CC(=O)NC1(C)CCCN(c2ccc(OC(F)(F)F)cc2)C1` (stereo not given) the Potency was inconclusive: 44.7 µM [inhibitor, partial curve]. With `COc1ccccc1C(=O)N1CCN(CCn2nc3n(c2=O)CCCC3)CC1` the Potency was “inactive”. With `Cn1cc(-c2ccc(F)cc2)c2nc(CO)cn2c1=O` the Potency was inconclusive: 112 µM [inhibitor, partial curve, poor fit]. In the case of `COc1ccc(OCC(=O)N2CCC(Cc3nc(-c4ccc(F)cc4)no3)CC2)cc1`, the Potency is reported as inconclusive: 39.8 µM [inhibitor, partial curve, poor fit]. For `CSc1ccc(-c2ccc3c(c2)C(=O)N2CC[C@H](NC(=O)C4CCCC4)[C@H]2C(=O)N3)cc1`, the Potency was inconclusive: 79.4 µM [inhibitor, single point]. With `Cc1cc(C)n(CC(=O)N2CCC(c3nc(CCOc4ccc(F)cc4)no3)C2)n1` (stereo not given) the Potency was inconclusive: 79.4 µM [inhibitor, partial curve, poor fit]. With `Cc1cc(Cl)ccc1NC(=O)c1cnc(-c2ccccc2)nc1-c1ccncc1` the Potency was active: 20 µM. For `Cc1ccc(C(=O)CCc2nc(C3CC(=O)N(C4CCCCC4)C3)no2)cc1` (stereo not given), the Potency was inconclusive: 31.6 µM [inhibitor, partial curve, poor fit]. In the case of `COc1ccccc1C(=O)N1CCN(c2nccc(Nc3ccccc3F)n2)CC1`, the Potency is reported as inconclusive: 31.6 µM [inhibitor, partial curve, poor fit]. With `c1coc(-c2nnc([C@H]3CCN(Cc4cc5ccccc5o4)C3)o2)c1` the Potency was “inactive”. In the case of `O=C(Cc1ccc(F)cc1)NC1CCN(c2cc(-c3ccccc3)[nH]n2)CC1`, the Potency is reported as inconclusive: 15.8 µM [inhibitor, full curve]. In the case of `CC(=O)Nc1cccc(-c2ncc3c(n2)OCCN(Cc2ccc(F)cc2F)C3=O)c1`, the Potency is reported as inconclusive: 17.8 µM [inhibitor, full curve, poor fit]. With `Cc1cc(=O)n(CC(=O)Nc2ccc3c(c2)OCO3)c(N2CCc3ccccc3C2)n1` the Potency was inconclusive: 50.1 µM [inhibitor, partial curve, poor fit]. For `O=C(c1ccsc1)N1CCC2(CC1)CC(N(C(=O)c1ccccc1)C1CC1)CCO2` (stereo not given), the Potency was inconclusive: 50.1 µM [inhibitor, partial curve, poor fit]. For `COc1cccc(-c2ccc(C(=O)NCCNC(=O)c3ccccc3OC)cc2)c1`, the Potency was inconclusive: 11.2 µM [inhibitor, full curve]. With `O=C(Nc1cccs1)N1CCNc2cnc(Nc3cccc(C(F)(F)F)c3)nc2C1` the Potency was active: 79.4 µM. In the case of `Cn1ncc2c(C(=O)NCCCc3ccccc3)cc(-c3ccc(Cl)cc3Cl)nc21`, the Potency is reported as inconclusive: 31.6 µM [inhibitor, partial curve]. With `COc1ccc(OC)c(S(=O)(=O)N2CCCOCCNC(=O)[C@@H]3CCC[C@@H]32)c1` the Potency was “inactive”. In the case of `COc1cccc(Nc2ccc3c(n2)C(C)(C(=O)NC2CCN(C)CC2)CN(C)C3)c1` (stereo not given), the Potency is reported as inconclusive: 100 µM [inhibitor, single point]. For `Cc1nc(N2CCC(C(=O)NCc3ccc4c(c3)OCO4)CC2)cc(C(F)(F)F)n1`, the Potency was inconclusive: 28.2 µM [inhibitor, partial curve, poor fit]. In the case of `CN(C)c1ccc(CNC2(Cc3cc(COc4ccccc4)on3)COC2)cc1`, the Potency is reported as inconclusive: 100 µM [inhibitor, partial curve, poor fit]. For `Cn1ccc(Nc2nccc3c(=O)cc(-c4ccccn4)oc23)n1`, the Potency was inconclusive: 14.1 µM [inhibitor, full curve, poor fit]. In the case of `O=C(c1c(OCC2CC2)cc(=O)n2c1CCCCC2)N1CCN(c2ccccn2)CC1`, the Potency is reported as inconclusive: 44.7 µM [inhibitor, partial curve, poor fit]. In the case of `COc1cc(OC)c(NC(=O)Cn2c(N(C)Cc3ccccc3)nc(C)cc2=O)cc1Cl`, the Potency is reported as inconclusive: 10 µM [inhibitor, partial curve, poor fit]. With `CC(=O)N[C@H]1CCN(CCC(=O)Nc2ccc(F)c(Cl)c2)C1` the Potency was “inactive”. With `O=C(CC[C@H]1NC(=O)c2ccccc2NC1=O)Nc1cccc(-c2ncn[nH]2)c1` the Potency was “inactive”. In the case of `CCn1ccc(C(=O)N2CCCC2c2nc(C3CCOCC3)no2)n1` (stereo not given), the Potency is reported as “inactive”. In the case of `c1ccc(-c2nc(NCc3cc4n(n3)CCCNC4)c3ccccc3n2)cc1`, the Potency is reported as inconclusive: 50.1 µM [inhibitor, partial curve, poor fit]. With `O=c1ccc(-c2cc(-c3cccc(N4CCOCC4)c3)cn3cncc23)c[nH]1` the Potency was inconclusive: 79.4 µM [inhibitor, partial curve, poor fit].

— PubChem BioAssay AID1345082 (National Center for Advancing Translational Sciences (NCATS), 2018)
Potency is the fitted concentration of half-maximal effect; tags give direction and shape of the fitted curve.
